{
  "source": "the BET-seq Pho4 binding data (Le et al. 2018)",
  "note": "The other results are listed elsewhere or left out. The energies were worked out here from pooled read counts, against the library average; single values are noisy.",
  "data": [
    {"biological_target": "T1, Pho4 (S. cerevisiae) (UniProt P07270)", "T1 sequence": "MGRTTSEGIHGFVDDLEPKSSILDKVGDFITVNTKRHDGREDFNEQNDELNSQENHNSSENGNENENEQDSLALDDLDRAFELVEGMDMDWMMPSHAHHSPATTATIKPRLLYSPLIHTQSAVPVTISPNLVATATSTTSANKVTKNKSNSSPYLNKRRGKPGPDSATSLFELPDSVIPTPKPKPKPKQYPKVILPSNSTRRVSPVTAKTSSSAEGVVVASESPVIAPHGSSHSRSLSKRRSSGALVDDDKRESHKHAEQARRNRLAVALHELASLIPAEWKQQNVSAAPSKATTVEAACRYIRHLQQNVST", "assay": "relative binding free energy (BET-seq); higher = weaker binding", "conditions": "reference: library average", "units": {"relative binding free energy": "kcal/mol"}, "values": [
      {"sequence": "TCGTGCACGTGGTCGG", "relative binding free energy": 0},
      {"sequence": "TTTGTCACGTGTAAAG", "relative binding free energy": 0.12},
      {"sequence": "TTGGACACGTGATCTT", "relative binding free energy": 0.14},
      {"sequence": "TATTTCACGTGTCTGA", "relative binding free energy": 0.26},
      {"sequence": "GTCTACACGTGTGGGT", "relative binding free energy": 0.19},
      {"sequence": "GTGCGCACGTGGGCCG", "relative binding free energy": -0.14},
      {"sequence": "TAGAGCACGTGGGGCA", "relative binding free energy": -0.15},
      {"sequence": "TACTTCACGTGGGTAT", "relative binding free energy": 0.13},
      {"sequence": "TTAGTCACGTGTGTGG", "relative binding free energy": 0.2},
      {"sequence": "GGGTTCACGTGTAAGG", "relative binding free energy": 0.35},
      {"sequence": "ACCAGCACGTGGGGGG", "relative binding free energy": -0.31},
      {"sequence": "ATTCACACGTGGTGTA", "relative binding free energy": -0.03},
      {"sequence": "TGAATCACGTGTTTTA", "relative binding free energy": 0.06},
      {"sequence": "AGTTACACGTGGGCAG", "relative binding free energy": -0.01},
      {"sequence": "GAAAGCACGTGAAAGG", "relative binding free energy": 0.39},
      {"sequence": "GAGTTCACGTGGTCGA", "relative binding free energy": 0.4},
      {"sequence": "AGGCACACGTGTCGGG", "relative binding free energy": 0.07},
      {"sequence": "GAGGTCACGTGTACTG", "relative binding free energy": 0.16},
      {"sequence": "TTTAGCACGTGTGGAG", "relative binding free energy": -0.02},
      {"sequence": "GTGTGCACGTGTTCGC", "relative binding free energy": 0.02},
      {"sequence": "AGGGGCACGTGTTGAC", "relative binding free energy": -0.21},
      {"sequence": "GGTTACACGTGTTCTT", "relative binding free energy": 0.1},
      {"sequence": "CTGGGCACGTGTCGTT", "relative binding free energy": -0.04},
      {"sequence": "TTGGTCACGTGGTTGC", "relative binding free energy": 0.1},
      {"sequence": "TGATTCACGTGCGGGG", "relative binding free energy": 0.22},
      {"sequence": "ATTGCCACGTGAGTGG", "relative binding free energy": 0.13},
      {"sequence": "ATGTTCACGTGGCTAG", "relative binding free energy": 0.17},
      {"sequence": "TAAGGCACGTGTTTCG", "relative binding free energy": -0.07},
      {"sequence": "TAGGCCACGTGTTTGG", "relative binding free energy": -0.15},
      {"sequence": "AGTTGCACGTGTATGC", "relative binding free energy": -0.06},
      {"sequence": "AATATCACGTGTTGCT", "relative binding free energy": 0.1},
      {"sequence": "GTAGGCACGTGAAAGT", "relative binding free energy": 0.17},
      {"sequence": "TAGGACACGTGTGAGT", "relative binding free energy": 0.15},
      {"sequence": "TCATACACGTGGGTTA", "relative binding free energy": -0.02},
      {"sequence": "AGAGGCACGTGTGTAT", "relative binding free energy": -0.05},
      {"sequence": "GCTGTCACGTGTGGTA", "relative binding free energy": 0.16},
      {"sequence": "TGGGACACGTGTTATC", "relative binding free energy": 0.11},
      {"sequence": "TTTGACACGTGGAGAG", "relative binding free energy": 0.07},
      {"sequence": "GGGTTCACGTGGATAG", "relative binding free energy": 0.25},
      {"sequence": "TTGTGCACGTGTTTTA", "relative binding free energy": 0.07},
      {"sequence": "TGTTACACGTGATTCT", "relative binding free energy": 0.14},
      {"sequence": "TTGCGCACGTGTTATT", "relative binding free energy": -0.02},
      {"sequence": "TGATGCACGTGCTTTT", "relative binding free energy": -0.14},
      {"sequence": "TGTAGCACGTGGCATT", "relative binding free energy": -0.28},
      {"sequence": "GTGGGCACGTGTGAAG", "relative binding free energy": -0.04},
      {"sequence": "AGGGGCACGTGGCTGA", "relative binding free energy": -0.21},
      {"sequence": "TTTGACACGTGATCTG", "relative binding free energy": 0.11},
      {"sequence": "TTTGGCACGTGGTCGT", "relative binding free energy": -0.13},
      {"sequence": "TAGGACACGTGTGCTA", "relative binding free energy": 0.13},
      {"sequence": "TGTTTCACGTGGTCAG", "relative binding free energy": 0.15},
      {"sequence": "ATGGTCACGTGTACTT", "relative binding free energy": 0.11},
      {"sequence": "TGGGACACGTGTGACT", "relative binding free energy": 0.18},
      {"sequence": "GTCGGCACGTGAGGTA", "relative binding free energy": 0.13},
      {"sequence": "TATTCCACGTGTGATT", "relative binding free energy": 0.16},
      {"sequence": "CGGAGCACGTGGAGGA", "relative binding free energy": -0.03},
      {"sequence": "TGGAGCACGTGGCTGG", "relative binding free energy": -0.26},
      {"sequence": "TGCTTCACGTGTAAAG", "relative binding free energy": 0.28},
      {"sequence": "TCGTACACGTGGGTGT", "relative binding free energy": -0.06},
      {"sequence": "TCGAACACGTGAGTGT", "relative binding free energy": 0.26},
      {"sequence": "TTTGGCACGTGGGTAT", "relative binding free energy": -0.2},
      {"sequence": "CGTGTCACGTGGTGCT", "relative binding free energy": 0.04},
      {"sequence": "ACTGGCACGTGCGTGT", "relative binding free energy": -0.16},
      {"sequence": "CTTGACACGTGGATGT", "relative binding free energy": 0.03},
      {"sequence": "CGTGGCACGTGTCAGG", "relative binding free energy": -0.08},
      {"sequence": "TTTAGCACGTGTGTAA", "relative binding free energy": -0.1},
      {"sequence": "CTGGGCACGTGGGCTA", "relative binding free energy": -0.21},
      {"sequence": "GTCAGCACGTGAGTTT", "relative binding free energy": 0.29},
      {"sequence": "GGTGGCACGTGGTAAA", "relative binding free energy": -0.1},
      {"sequence": "GGAAGCACGTGTAGAG", "relative binding free energy": -0.11},
      {"sequence": "GGTTGCACGTGGTAGT", "relative binding free energy": -0.01},
      {"sequence": "ATGGTCACGTGTTGGG", "relative binding free energy": 0.12},
      {"sequence": "TTCAACACGTGGGTAG", "relative binding free energy": -0.18},
      {"sequence": "GCTAACACGTGTTGGT", "relative binding free energy": 0.08},
      {"sequence": "TCGGCCACGTGTGAGG", "relative binding free energy": -0.02},
      {"sequence": "ATTGTCACGTGCGTTA", "relative binding free energy": -0.08},
      {"sequence": "AGTCTCACGTGTTCTG", "relative binding free energy": 0.28},
      {"sequence": "ATGGTCACGTGAATGA", "relative binding free energy": 0.21},
      {"sequence": "GTTATCACGTGGCATG", "relative binding free energy": 0.07},
      {"sequence": "AGATTCACGTGATGAG", "relative binding free energy": 0.29},
      {"sequence": "TTAGACACGTGGTAGT", "relative binding free energy": 0},
      {"sequence": "GATGTCACGTGTTGCT", "relative binding free energy": 0.08},
      {"sequence": "TGTTACACGTGAGTCA", "relative binding free energy": 0.19},
      {"sequence": "GTTAGCACGTGTTTAG", "relative binding free energy": 0.04},
      {"sequence": "TAACGCACGTGTTAGT", "relative binding free energy": -0.1},
      {"sequence": "TGGTACACGTGTGTGA", "relative binding free energy": 0.04},
      {"sequence": "TTAAGCACGTGTCGGA", "relative binding free energy": -0.03},
      {"sequence": "TGGAACACGTGAATTG", "relative binding free energy": 0.22},
      {"sequence": "TGACGCACGTGTTAAG", "relative binding free energy": -0.02},
      {"sequence": "TGTGGCACGTGAGGTA", "relative binding free energy": 0.1},
      {"sequence": "CAGTGCACGTGAGAGG", "relative binding free energy": 0.24},
      {"sequence": "TCGGGCACGTGTGGGT", "relative binding free energy": -0.08},
      {"sequence": "TTGTGCACGTGAGGTT", "relative binding free energy": 0.2},
      {"sequence": "TTGGACACGTGTCATT", "relative binding free energy": 0.01},
      {"sequence": "CGCTACACGTGAGGGG", "relative binding free energy": 0.27},
      {"sequence": "AGTAACACGTGGATTT", "relative binding free energy": 0.05},
      {"sequence": "CGCGGCACGTGCTGGT", "relative binding free energy": -0.23},
      {"sequence": "TGTATCACGTGGCACG", "relative binding free energy": 0.04},
      {"sequence": "TTTCTCACGTGGGTGT", "relative binding free energy": 0.19},
      {"sequence": "ATAGGCACGTGTATTG", "relative binding free energy": -0.05},
      {"sequence": "TGTGGCACGTGTGCAC", "relative binding free energy": -0.22},
      {"sequence": "TATGCCACGTGGGTTA", "relative binding free energy": -0.25},
      {"sequence": "TTGGTCACGTGCCGTT", "relative binding free energy": -0.07},
      {"sequence": "CGGGGCACGTGGTTAA", "relative binding free energy": -0.2},
      {"sequence": "TGGGCCACGTGGAGCT", "relative binding free energy": -0.06},
      {"sequence": "AGGAGCACGTGTAGGA", "relative binding free energy": -0.19},
      {"sequence": "TCTGGCACGTGTGCTG", "relative binding free energy": -0.05},
      {"sequence": "GTAGGCACGTGGGTAT", "relative binding free energy": -0.19},
      {"sequence": "TATCTCACGTGTGGTC", "relative binding free energy": 0.21},
      {"sequence": "TTAGACACGTGGGGCG", "relative binding free energy": -0.07},
      {"sequence": "ACGTTCACGTGTGGGT", "relative binding free energy": 0.21},
      {"sequence": "AGGTCCACGTGGGCGG", "relative binding free energy": -0.26},
      {"sequence": "ATTATCACGTGCGGTT", "relative binding free energy": 0.1},
      {"sequence": "ATATGCACGTGTTTTG", "relative binding free energy": 0},
      {"sequence": "TGGATCACGTGGTAAA", "relative binding free energy": 0.24},
      {"sequence": "ATATGCACGTGGTTGG", "relative binding free energy": -0.07}
    ]}
  ]
}
